B1: LINE1-mini (parent)
chain: GGCAGAGCUCAACACAGCGUGGCAAAGUGGCUGUGGCUAGACUGCC

Read counts are not given, so values of variants with three or more changes are uncertain.

The variants in the data set derive from B1. Nature of the data set: self-cleavage, relative activity (ratio to wild type); higher = more cleavage; in vitro, sequencing; the parent is a self-cleaving ribozyme.
On to GGCAGAGCUCACAACAGAGUGGCAAAGUGGCGGUGGCUAGACUGCC [A12C C13A C18A U32G], for which the self-cleavage is 0.02.

With GGCAGAGCUCUACACAGCGUGGCAAAGUGGCGGUGGCUAAACUGCC [A11U U32G G40A], the self-cleavage came to 0. For the variant GGCAGAGCUCACCACAGCUUGGCAAAGAGGCUGUGGCUAGACUGCC [A12C G19U U28A], the self-cleavage is 0. Then GGCAGAGCUCACCACAGCGUGGCAUAGUGUCUGUGGCUAGACUGCC [A12C A25U G30U], with 0; and GGCAGAGCUCACAACAGCGUGGCAAAGUGGCUGUGGCCAGAAUGCC [A12C C13A U38C C42A], with 0.03; and GGCAGAGCUCACCACAGGGUGGCAAAGUGGCUGUGGCUAGACUAUA [A12C C18G G44A C45U C46A], with 0.02. Next, GGCAGAGCUCUACACAGCGUGGCAAAGUGGCUGUGGCGAGACUGCG [A11U U38G C46G]: 0.02. As for GGCAGAGCUCACCACAGCGGGGCAAAGUGGCUGUGGCUAAACUGCC [A12C U20G G40A], the self-cleavage was 0.04. In the case of GGCAGAGCUCACCACAGCGUGGCGAAGUGGCAGUGGCUCGACUGCC [A12C A24G U32A A39C], the self-cleavage came out at 0. Then GGCAGAGCUCACCACAGCGUGGCAAAGUGUCUGUGGCUAGACUCCC [A12C G30U G44C], with 0.07; and GGCAGAGCUCACCACAACGUGGCCAAGUGGCUGUGGCUAGACUGGC [A12C G17A A24C C45G], with 0.01. For the variant GGCAGAGCUCACCAGAGCGUGGCAAUGUGGCUCUGGCUAGACUGCC [A12C C15G A26U G33C], the self-cleavage turned out to be 0.04.

As for GGCAGAGCUCACCCCAGCGCGGCAAAGUGGCUGUGGCUAGACUGCC [A12C A14C U20C], the self-cleavage stood at 0.01. In the case of GGCAGAGCUCAGCCCAGCGUGGCAAAGUGGCUGUGGCUAUACUUCC [A12G A14C G40U G44U], the self-cleavage was determined as 0.01.

As for GGCAGAGCUCACCGCAGCGUGGCAAAGCGGCUGUGGCUAGACUACC [A12C A14G U28C G44A], the self-cleavage amounted to 0.03. Next, GGCAGAGCUCAGCACAGCGUGGCGAAGUGGCUGUGGCAAGUCUGCC [A12G A24G U38A A41U]: 0.12; GGCAGAGCUCACCACAGCGUGACAAAGUGGAUGUGGCUAGACUGCC [A12C G22A C31A]: 0.01; GGCAGAGCUCACGACAGCGUGGCAAAGUGGGUGUGGCUAGACUGCA [A12C C13G C31G C46A]: 0. Next, GGCAGAGCUCACCUUAGCGUAGCAAAGUGGCUGUGGCUAGACACCC [A12C A14U C15U G21A U43A G44C]: 0.01.

On to GGCAGAGCUCACCACAGCGUGGCAAAGUGGCAGUGGCAAGACCGGC [A12C U32A U38A U43C C45G], for which the self-cleavage came to 0.01. Then GGCAGAGCUCACCACAGCGUGGCAAAGAGGCUGUGUCCAGACUGAC [A12C U28A G36U U38C C45A], with 0; and GGCAGAGCUCACCUGAGCGUGGCAAAGUGGAUGUAGCUAGACUGCC [A12C A14U C15G C31A G35A], with 0.03. Next, GGCAGAGCUCACCACAGCGUGGCAAAGUGGAUGUUGCUAGACUGCC [A12C C31A G35U]: 0.02; GGCAGAGCUCACUACAGCGUAUCAAAGUGGCUAUGGCUAGUAUGCC [A12C C13U G21A G22U G33A A41U C42A]: 0.02; GGCAGAGCUCACCACAGCGUGGCAAAGUGGCUGUGGUUGGUCUGCC [A12C C37U A39G A41U]: 0.01. Then GGCAGAGCUCACCCCACCGUGGAAAAGUGGCUGUGGCGACACUGCC [A12C A14C G17C C23A U38G G40C], with 0.01; and GGCAGAGCUCACCACAGCGUGGAAAAGUGGCUGUGGAUAGACUGCC [A12C C23A C37A], with 0.05; and GGCAGAGCUCACCACAGGGUGGCAAAGUGGCAGUGGCUAGUGUGCC [A12C C18G U32A A41U C42G], with 0.01.

For the variant GGCAGAGCUCACCAUAGCGUGGAAAAGUGGCUGUGGCUAGACUGCC [A12C C15U C23A], the self-cleavage stood at 0.02. Then GGCAGAGCUCACAACAGCGUGGCAAAGUUGCUGUGGCUAGACUGCC [A12C C13A G29U], with 0.02; and GGCAGAGCUCUACACAGCGUGGCAAAGUGGCCGUCGCUAGAGUGCC [A11U U32C G35C C42G], with 0.01. For GGCAGAGCUCACCACAGCAUGGGAAAGUGCCUGUGGCUAGACUGCC [A12C G19A C23G G30C], the self-cleavage came out at 0.01. Then GGCAGAGCUCAGCGCAGCGUGGCAAAGUGACGGUGGCUAGACUGCC [A12G A14G G30A U32G], with 0.02; and GGCAGAGCUCACCACAGCGUAGCAAAGUGGCAGUGGCUAGACUGCC [A12C G21A U32A], with 0; and GGCAGAGCUCACCACAGCAUGGCAAAGUGGCUGCGCCUAGACUGCC [A12C G19A U34C G36C], with 0.01. Then GGCAGAGCUCACCACAGCGUGGCAAAUUGGCUGUGGCUAGAGUGCC [A12C G27U C42G], with 0.03; and GGCAGAGCUCACCACAGCGUGACAAAGUGGCUGCGGCUAGACUGCC [A12C G22A U34C], with 0.01. Then GGCAGAGCUCAGCGCAGUGUGGCAAAGUUGCGGUGGCUAGACUGCC [A12G A14G C18U G29U U32G], with 0.02; and GGCAGAGCUCACCACAGCGUGGCAAAGCGGCUGUGGCUUGACUGCC [A12C U28C A39U], with 0.02. Consider GGCAGAGCUCACCACAGGGUGGGAAAGUGUCUGUGGCUAGACUGCC [A12C C18G C23G G30U], for which the self-cleavage was 0. Turning to GGCAGAGCUCACCACAGCGUGGCAAUGUGGCAGUGGCUAGACUGCC [A12C A26U U32A], the self-cleavage was determined as 0.02. For GGCAGAGCUCACCACAGCGUGCCAAAGCGGCUGUGGCUAGACCGCC [A12C G22C U28C U43C], the self-cleavage is 0.01. Next, GGCAGAGCUCACCACAGCGUGACAAAAUGGCUGUUUCUAGACUGCC [A12C G22A G27A G35U G36U]: 0.02; GGCAGAGCUCAGCACAGCGUGGCCAAGUGGCUGUGGCUAGACUGUC [A12G A24C C45U]: 0.01. Next, GGCAGAGCUCACCGCAGCGUGGCAAAGUGGCUUUGCCUAGACUGCC [A12C A14G G33U G36C]: 0; GGCAGAGCUCACCACAUCGUGGCUAAGUGGCUGUGGCUAGACUGCC [A12C G17U A24U]: 0.04; GGCAGAGCUCACCACAACUUGGCAAAGUGGCUGUGGCUAGACUGCC [A12C G17A G19U]: 0.01. Next, GGCAGAGCUCAGCUCAGCGUGGCAAAGUGGCUCUGCCUAGACUGCC [A12G A14U G33C G36C]: 0.06; GGCAGAGCUCUACACAGCGUGGCAAAGUGGCUGAGUCUAGACUGCC [A11U U34A G36U]: 0.02; GGCAGAGCUCAGCACGGCGUGGCAAAGUGGAUGUGGCUAGACUGCC [A12G A16G C31A]: 0.23. In the case of GGCAGAGCUCUACACAGCGUGGCAAAGUGGCUGUGGCAAGAUUGGC [A11U U38A C42U C45G], the self-cleavage was 0.01. Then GGCAGAGCUCACCACAGGUUGGCAAAGUGGCUGUGGCCAAACUGCC [A12C C18G G19U U38C G40A], with 0.02; and GGCAGAGCUCACCACAGAGUGACAAAGUGGCUGUGGCUAGAAUCCC [A12C C18A G22A C42A G44C], with 0; and GGCAGAGCUCACCACAGCGUGCCAAAGUGCCUGUGGCUAGACUGCA [A12C G22C G30C C46A], with 0.01. Next, GGCAGAGCUCACCACAGCGUGGCAAAGUGGCGGUGACUAGACUGCC [A12C U32G G36A]: 0.01; GGCAGAGCUCACCACAGCGUGGCAAAUUGGAUGUGGCUAGACUGCC [A12C G27U C31A]: 0.04.

(Values after the RNAGym collection of RNA variant scans (doi:10.7554/elife.90254).)
